The list shows a part of the results.
Tests used:
Experiment in all cases: glycan array binding signal (z-score within array); higher = stronger binding
Settings in all cases: glycan notation: IUPAC condensed, linker removed
[1] = biological target: Gal(a1-3)Gal(b1-4)[Fuc(a1-3)]GlcNAc(b1-2)Man(a1-3)[Gal(a1-3)Gal(b1-4)[Fuc(a1-3)]GlcNAc(b1-2)Man(a1-6)]Man(b1-4)GlcNAc(b1-4)GlcNAc
Procedure, shortened: (§1)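 From the Consortium for Functional Glycomics database, 3228 arrays were curated, keeping only those whose protein sequence was available. Binding is given as a within-array Z-score averaged across arrays sharing a protein sequence and across linkers. Negative Z-scores can be read as non-binding.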

Gal(a1-3)GalNAc = biological target: Gal(a1-3)GalNAc
Procedure, shortened: as §1

[2] = biological target: Gal(a1-3)[Gal(a1-4)]Gal(b1-4)GlcNAc
Procedure, shortened: as §1

[3] = biological target: Gal(a1-4)Gal(b1-3)GlcNAc(b1-2)Man(a1-3)[Gal(a1-4)Gal(b1-3)GlcNAc(b1-2)Man(a1-6)]Man(b1-4)GlcNAc(b1-4)GlcNAc
Procedure, shortened: as §1

Gal(a1-4)Gal(b1-4)Glc = biological target: Gal(a1-4)Gal(b1-4)Glc
Procedure, shortened: as §1

Gal(a1-4)Gal(b1-4)GlcNAc = biological target: Gal(a1-4)Gal(b1-4)GlcNAc
Procedure, shortened: as §1

[4] = biological target: Gal(a1-4)Gal(b1-4)GlcNAc(b1-2)Man(a1-3)[Gal(a1-4)Gal(b1-4)GlcNAc(b1-2)Man(a1-6)]Man(b1-4)GlcNAc(b1-4)GlcNAc
Procedure, shortened: as §1

[5] = biological target: Gal(a1-4)Gal(b1-4)GlcNAc(b1-3)Gal(b1-4)Glc
Procedure, shortened: as §1

Gal(a1-4)GlcNAc = biological target: Gal(a1-4)GlcNAc
Procedure, shortened: as §1

Gal(a1-6)Glc = biological target: Gal(a1-6)Glc
Procedure, shortened: as §1

Gal(b1-2)Gal = biological target: Gal(b1-2)Gal
Procedure, shortened: as §1

Gal(b1-3)Gal = biological target: Gal(b1-3)Gal
Procedure, shortened: as §1

Gal(b1-3)Gal(b1-4)GlcNAc = biological target: Gal(b1-3)Gal(b1-4)GlcNAc
Procedure, shortened: as §1

[6] = biological target: Gal(b1-3)Gal(b1-4)GlcNAc(b1-2)Man(a1-3)[Gal(b1-3)Gal(b1-4)GlcNAc(b1-2)Man(a1-6)]Man(b1-4)GlcNAc(b1-4)GlcNAc
Procedure, shortened: as §1

Gal(b1-3)GalNAc = biological target: Gal(b1-3)GalNAc
Procedure, shortened: as §1

[7] = biological target: Gal(b1-3)GalNAc(a1-3)[Fuc(a1-2)]Gal(b1-4)Glc
Procedure, shortened: as §1

[8] = biological target: Gal(b1-3)GalNAc(a1-3)[Fuc(a1-2)]Gal(b1-4)GlcNAc
Procedure, shortened: as §1

Gal(b1-3)GalNAc(b1-3)Gal = biological target: Gal(b1-3)GalNAc(b1-3)Gal
Procedure, shortened: as §1

[9] = biological target: Gal(b1-3)GalNAc(b1-3)Gal(a1-4)Gal(b1-4)Glc
Procedure, shortened: as §1

[10] = biological target: Gal(b1-3)GalNAc(b1-4)Gal(b1-4)Glc
Procedure, shortened: as §1

[11] = biological target: Gal(b1-3)GalNAc(b1-4)[Neu5Ac(a2-3)]Gal(b1-4)Glc
Procedure, shortened: as §1

Gal(b1-3)GlcNAc = biological target: Gal(b1-3)GlcNAc
Procedure, shortened: as §1

[12] = biological target: Gal(b1-3)GlcNAc(a1-3)Gal(b1-4)GlcNAc
Procedure, shortened: as §1

[13] = biological target: Gal(b1-3)GlcNAc(a1-6)Gal(b1-4)GlcNAc
Procedure, shortened: as §1

Gal(b1-3)GlcNAc(b1-2)Man = biological target: Gal(b1-3)GlcNAc(b1-2)Man
Procedure, shortened: as §1

[14] = biological target: Gal(b1-3)GlcNAc(b1-2)Man(a1-3)[Gal(b1-3)GlcNAc(b1-2)Man(a1-6)]Man(b1-4)GlcNAc(b1-4)GlcNAc
Procedure, shortened: as §1

[15] = biological target: Gal(b1-3)GlcNAc(b1-2)Man(a1-3)[Gal(b1-3)GlcNAc(b1-2)Man(a1-6)]Man(b1-4)GlcNAc(b1-4)[Fuc(a1-6)]GlcNAc
Procedure, shortened: as §1

[16] = biological target: Gal(b1-3)GlcNAc(b1-2)Man(a1-3)[GlcNAc(b1-4)][Gal(b1-3)GlcNAc(b1-2)Man(a1-6)]Man(b1-4)GlcNAc(b1-4)GlcNAc
Procedure, shortened: as §1

[17] = biological target: Gal(b1-3)GlcNAc(b1-2)[Gal(b1-3)GlcNAc(b1-6)]Man(a1-6)[Gal(b1-3)GlcNAc(b1-2)Man(a1-3)]Man(b1-4)GlcNAc(b1-4)GlcNAc
Procedure, shortened: as §1

[18] = biological target: Gal(b1-3)GlcNAc(b1-3)Gal(b1-3)GlcNAc
Procedure, shortened: as §1

[19] = biological target: Gal(b1-3)GlcNAc(b1-3)Gal(b1-4)Glc
Procedure, shortened: as §1

[20] = biological target: Gal(b1-3)GlcNAc(b1-3)Gal(b1-4)GlcNAc
Procedure, shortened: as §1

[21] = biological target: Gal(b1-3)GlcNAc(b1-3)Gal(b1-4)GlcNAc(b1-2)Man(a1-3)[Gal(b1-3)GlcNAc(b1-3)Gal(b1-4)GlcNAc(b1-2)Man(a1-6)]Man(b1-4)GlcNAc(b1-4)GlcNAc
Procedure, shortened: as §1

[22] = biological target: Gal(b1-3)GlcNAc(b1-3)Gal(b1-4)GlcNAc(b1-2)[Gal(b1-3)GlcNAc(b1-3)Gal(b1-4)GlcNAc(b1-6)]Man(a1-6)[Gal(b1-3)GlcNAc(b1-3)Gal(b1-4)GlcNAc(b1-2)Man(a1-3)]Man(b1-4)GlcNAc(b1-4)[Fuc(a1-6)]GlcNAc
Procedure, shortened: as §1

[23] = biological target: Gal(b1-3)GlcNAc(b1-3)Gal(b1-4)GlcNAc(b1-3)Gal(b1-4)GlcNAc(b1-2)[Gal(b1-3)GlcNAc(b1-3)Gal(b1-4)GlcNAc(b1-3)Gal(b1-4)GlcNAc(b1-6)]Man(a1-6)[Gal(b1-3)GlcNAc(b1-3)Gal(b1-4)GlcNAc(b1-3)Gal(b1-4)GlcNAc(b1-2)Man(a1-3)]Man(b1-4)GlcNAc(b1-4)[Fuc(a1-6)]GlcNAc
Procedure, shortened: as §1

[24] = biological target: Gal(b1-3)GlcNAc(b1-3)Gal(b1-4)GlcNAc(b1-6)[Gal(b1-3)GlcNAc(b1-3)]Gal(b1-4)Glc
Procedure, shortened: as §1

[25] = biological target: Gal(b1-3)GlcNAc(b1-3)Gal(b1-4)[Fuc(a1-3)]GlcNAc
Procedure, shortened: as §1

B1: LSECtin (Homo sapiens), Q6UXB4 (protein)
chain: MDTTRYSKWGGSSEEVPGGPWGRWVHWSRRPLFLALAVLVTTVLWAVILSILLSKASTERAALLDGHDLLRTNASKQTAALGALKEEVGDCHSCCSGTQAQLQTTRAELGEAQAKLMEQESALRELRERVTQGLAEAGRGREDVRTELFRALEAVRLQNNSCEPCPTSWLSFEGSCYFFSVPKTTWAAAQDHCADASAHLVIVGGLDEQGFLTRNTRGRGYWLGLRAVRHLGKVQGYQWVDGVSLSFSHWNQGEPNDAWGRENCVMMLHTGLWNDAPCDSEKDGWICEKRHNC
- glycan array binding signal (z-score) [1]: 0.318
- glycan array binding signal (z-score) (Gal(a1-3)GalNAc): -0.216
- glycan array binding signal (z-score) [2]: -0.217
- glycan array binding signal (z-score) [3]: -0.098
- glycan array binding signal (z-score) (Gal(a1-4)Gal(b1-4)Glc): -0.194
- glycan array binding signal (z-score) (Gal(a1-4)Gal(b1-4)GlcNAc): 0.114
- glycan array binding signal (z-score) [4]: -0.133
- glycan array binding signal (z-score) [5]: -0.084
- glycan array binding signal (z-score) (Gal(a1-4)GlcNAc): -0.183
- glycan array binding signal (z-score) (Gal(a1-6)Glc): -0.21
- glycan array binding signal (z-score) (Gal(b1-2)Gal): -0.187
- glycan array binding signal (z-score) (Gal(b1-3)Gal): -0.147
- glycan array binding signal (z-score) (Gal(b1-3)Gal(b1-4)GlcNAc): -0.21
- glycan array binding signal (z-score) [6]: 0.14
- glycan array binding signal (z-score) (Gal(b1-3)GalNAc): -0.155
- glycan array binding signal (z-score) [7]: -0.259
- glycan array binding signal (z-score) [8]: -0.243
- glycan array binding signal (z-score) (Gal(b1-3)GalNAc(b1-3)Gal): -0.134
- glycan array binding signal (z-score) [9]: -0.22
- glycan array binding signal (z-score) [10]: -0.191
- glycan array binding signal (z-score) [11]: -0.148
- glycan array binding signal (z-score) (Gal(b1-3)GlcNAc): 0.042
- glycan array binding signal (z-score) [12]: -0.136
- glycan array binding signal (z-score) [13]: -0.138
- glycan array binding signal (z-score) (Gal(b1-3)GlcNAc(b1-2)Man): 0.205
- glycan array binding signal (z-score) [14]: 0.233
- glycan array binding signal (z-score) [15]: 0.003
- glycan array binding signal (z-score) [16]: -0.142
- glycan array binding signal (z-score) [17]: -0.06
- glycan array binding signal (z-score) [18]: -0.215
- glycan array binding signal (z-score) [19]: -0.099
- glycan array binding signal (z-score) [20]: -0.182
- glycan array binding signal (z-score) [21]: -0.122
- glycan array binding signal (z-score) [22]: -0.133
- glycan array binding signal (z-score) [23]: -0.127
- glycan array binding signal (z-score) [24]: -0.119
- glycan array binding signal (z-score) [25]: -0.132

— the supplement of paper PMC8728848
